Results reported in the supplement of paper PMC9446081.
Among all 39,000 compounds or so, about 220 (0.56%) showed activity. This is one part of the list.

These molecules were tested on Escherichia coli K-12 BW25113 (assay: relative growth (OD600 normalised to plate interquartile mean) (fraction); higher = less growth inhibition, active = 0.2 or less). Conditions: 50 µM; LB; incubation time: overnight (16-24 h).
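Also: static incubation at 37 °C against the wild-type strain, values averaged over two biological replicates.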

SMILES | relative growth
O=C(O)CC[C@@H](CP(=O)(O)O)C(=O)O | inactive: 0.997
C#CCOS(=O)OC1CCCCC1Oc1ccc(C(C)(C)C)cc1 (stereo not drawn) | inactive: 0.937
CC12CCC3C(CCC4(O)CC(O)CCC34C=O)C1(O)CCC2C1=CC(=O)OC1 (stereo not drawn) | inactive: 0.972
C[C@H]1CN([C@@H](C)CO)C(=O)CCCn2cc(nn2)CO[C@H]1CN(C)C(=O)Oc1ccc2ccccc2c1 | inactive: 0.988
O=C1N[C@@H]2C(=C[C@H](O)[C@@H](O)[C@H]2O)c2cc3c(c(O)c21)OCO3 | inactive: 0.913
CC(C)[C@@H](Br)C(=O)NC(N)=O | inactive: 0.986
C[N+](C)(C)CC(=O)[O-].Cl | inactive: 0.997
N#CC[N+]12CCN(CC1)CC2 | inactive: 0.975
CC(C)[C@H]1CN2CCC[C@H]2[C@@]2(O)O[C@](CC(=O)[C@@H]3C=C4c5cccc6[nH]cc(c56)C[C@H]4N(C)C3)(C(C)C)C(=O)N12 | inactive: 0.997
CC(=O)Nc1ccc(Cl)cc1C | inactive: 0.999
CCC(COC(=O)c1cc(OC)c(OC)c(OC)c1)(c1ccccc1)N(C)C.O=C(O)C=CC(=O)O (stereo not drawn) | inactive: 0.993
CC1OC(OC2CC(O)C3(CO)C4C(O)CC5(C)C(C6=CC(=O)OC6)CCC5(O)C4CCC3(O)C2)C(O)C(O)C1O.O.O.O.O.O.O.O.O (stereo not drawn) | inactive: 1.01
O=C(O)CCl | inactive: 0.992
CNC(=O)Oc1ccc2c(c1)C1(C)CCN(C)C1N2C.O=C(O)c1ccccc1O (stereo not drawn) | inactive: 1.15
CN(C)C(=O)CN1C[C@H]2CON[C@@H]2C1 | inactive: 1.01
Cc1ccc2[nH]cc(C[C@@H](C)N)c2c1 | inactive: 1.03
CC(=O)[O][Cd][O]C(C)=O | inactive: 0.96
CCN1C[C@]2(C)CC[C@H](O)[C@@]34[C@@H]5C[C@H]6[C@H](O)[C@@H]5[C@](O)(C[C@@H]6OC)[C@](O)([C@@H](OC)[C@H]23)[C@@H]14 | inactive: 0.988
CCC[C@@H](CN)c1ccc(F)cc1 | inactive: 1.03
COC(=O)[C@H]1[C@H](CO)[C@H]2Cn3c(ccc(C4=CCCC4)c3=O)[C@@H]1N2S(=O)(=O)c1cn(C)cn1 | inactive: 1
C[C@@H]1CN([C@@H](C)CO)C(=O)CCCn2cc(nn2)CO[C@@H]1CN(C)C(=O)Oc1cccc2ccccc12 | inactive: 0.977
NC(=O)CN1C[C@H](O)CC1=O | inactive: 0.975
CC1=NCCc2c1[nH]c1cc(O)ccc21.Cl.O.O | inactive: 1
NCCc1ccc(S(=O)(=O)F)cc1 | inactive: 0.957

SMILES | relative growth
COP(=S)(OC)Oc1ccc([N+](=O)[O-])cc1 | inactive: 1.07
C[C@@H]1C(=O)O[C@H]2[C@H](O)[C@@]34[C@@H]5OC(=O)[C@@]3(O[C@@H]3OC(=O)[C@H](O)[C@@]34[C@H](C(C)(C)C)[C@H]5O)[C@@]12O | inactive: 1.03
O=C1CO[C@]2(CNCCOC2)CN1CC1CC1 | inactive: 0.98
OCC[N+]12CN3CN(CN(C3)C1)C2 | inactive: 1.03
CC(=O)OC1CC(OC(C)=O)C2(C)C(CC(OC(C)=O)C3(C)C2CCC2(C)C(c4ccoc4)C(=O)C4OC423)C1(C)C (stereo not drawn) | inactive: 0.982
Nc1ncccc1CN1CC[C@]2(CC(=O)NC2=O)C1 | inactive: 0.979
CN(C)[C@@H](CN)c1cccc(C(F)(F)F)c1 | inactive: 0.897
C1CCN(C[C@H]2CO[C@]3(CNCCOC3)C2)C1 | inactive: 1.01
C[C@H](O)[C@]12[C@@H]3CC=C[C@H]1N2CC3 (stereo partly drawn) | inactive: 0.993
CC(C)c1cccc2c1OCC[C@H](N)[C@@H]2O | inactive: 0.998
C=C(C)c1cc2cc(C(C)=O)c(O)cc2o1 | inactive: 0.934
N#CC(OC1OC(COC2OC(CO)C(O)C(O)C2O)C(O)C(O)C1O)c1ccccc1 (stereo not drawn) | inactive: 1.05
C[C@@H]1CN([C@H](C)CO)C(=O)CCCn2cc(nn2)CO[C@@H]1CN(C)C(=O)Oc1ccc2ccccc2c1 | inactive: 1.02
NCCO.NCCO.O[AsH]O[AsH]O (stereo not drawn) | inactive: 1.04
CCCCCCCCCCCCCCCC[N+](C)(C)C.[Br-] | active: 0.0522
O=c1cccc2n1CC1CNCC2C1 (stereo not drawn) | inactive: 1.03
CC(=O)Oc1ccc(C=Cc2cc(OC(C)=O)cc(OC(C)=O)c2)cc1 | inactive: 0.832
CNC(=O)[C@H]1C[C@H]2CN(CC3CC3)C[C@H]1O2 | inactive: 0.987
NCC1(c2ccc(Cl)cc2)CC1 | inactive: 0.969
Cc1[nH]c2ccccc2c1CCN | inactive: 0.971
CC12C=CC(=O)C=C1CCC1C2CCC2(C)C(=O)CCC12 (stereo not drawn) | inactive: 1.01
Cn1cc([C@@]23C[C@]2(C)COC3=O)cn1 | inactive: 0.997
Fc1ccc(Oc2ccnc3cc(Cl)cc(Cl)c23)cc1 | inactive: 1.15
O=C1CCCC2C3CCCN4CCCC(CN12)C34 (stereo not drawn) | inactive: 1.05

SMILES | relative growth
NCc1cc(=O)[nH]o1 | inactive: 0.984
CC(=O)NN1Cc2ccccc2C1=N | inactive: 1
N[C@@H](c1ccccc1)[C@H](O)c1ccccc1 | inactive: 0.969
NCCc1cccs1 | inactive: 0.983
NC[C@@H](O)c1ccccc1 | inactive: 0.976
CC(C)C[C@@H]1NC[C@@H]2CCCN2C1=O | inactive: 1.01
NC(=O)CN1CC(O)CC1=O (stereo not drawn) | inactive: 1.02
CN[C@@H]1[C@@H](O)[C@@H](O[C@@H]2[C@@H](O)[C@H](O[C@H]3O[C@H](CN)CC[C@H]3N)[C@@H](N)C[C@H]2N)OC[C@]1(C)O.CN[C@@H]1[C@@H](O)[C@@H](O[C@@H]2[C@@H](O)[C@H](O[C@H]3O[C@H]([C@@H](C)N)CC[C@H]3N)[C@@H](N)C[C@H]2N)OC[C@]1(C)O.CN[C@@H]1[C@@H](O)[C@@H](O[C@@H]2[C@@H](O)[C@H](O[C@H]3O[C@H]([C@@H](C)NC)CC[C@H]3N)[C@@H](N)C[C@H]2N)OC[C@]1(C)O | inactive: 0.624
CC1=C[C@H]2[C@]3(O)[C@H](C=C(CO)C[C@]2(O)C1=O)[C@H]1C(C)(C)[C@@]1(O)[C@H](O)[C@@H]3C | inactive: 1.02
O=C(O)C[C@H]1CC[C@@H]2NC[C@H](O)COC[C@H]2O1 | inactive: 0.998
CN1CCN(c2ccccc2CN)CC1 | inactive: 1.02
CC1OC(OC2C=C3CCC4C(CCC5(C)C(c6ccc(=O)oc6)CCC45O)C3(C)CC2)C(O)C(O)C1O (stereo not drawn) | inactive: 0.977
COC(C)(C)CCCC(C)CC=CC(C)=CC(=O)OC(C)C (stereo not drawn) | inactive: 0.816
C[C@H]1C[C@@H]2CNC[C@@H]2O1 | inactive: 0.993
CNC(=O)[C@H]1Cn2ccnc2C2(CCNCC2)O1 | inactive: 0.989
Cn1ccnc1CN1CCC[C@]2(CCNC2=O)C1 | inactive: 0.87
C1CCN2C(C3N4CCCCN34)N2C1 (stereo not drawn) | inactive: 0.976
C/C=C(\C)C(=O)O[C@H]1C[C@@H](OC(C)=O)[C@@]2(C(=O)OC)CO[C@H]3[C@@H](O)[C@@](C)([C@]45O[C@@]4(C)[C@H]4C[C@@H]5O[C@H]5OC=C[C@@]54O)[C@H]4[C@]1(CO[C@]4(O)C(=O)OC)[C@@H]32 | inactive: 1.01
C[C@@H](CN)CC(=O)O | inactive: 1
CC(C)=CC1C(C(=O)OCc2cccc(Oc3ccccc3)c2)C1(C)C (stereo not drawn) | inactive: 0.897
NNCc1ccccc1 | inactive: 1
c1ccc2sc(C3(N4CCCCC4)CCCCC3)cc2c1 | inactive: 0.965
C[N+](C)(C)CC#CCN1CCCC1=O | inactive: 0.988
Cc1cc(C2=NO[C@](c3cc(Cl)cc(Cl)c3)(C(F)(F)F)C2)ccc1C(=O)NCC(=O)NCC(F)(F)F | inactive: 0.982

SMILES | relative growth
CC[C@@H](C)[C@H]1NC(=O)C(C(C)=O)=C1O | inactive: 0.975
CC12CCC3C(CCC4CC(O)CCC43C)C1CCC2=O (stereo not drawn) | inactive: 1.02
Cn1ccnc1N1CCNCC1 | inactive: 0.986
CN(C)Cc1c[nH]c2ccccc12 | inactive: 0.976
C[C@H]1CN([C@@H](C)CO)C(=O)c2c(c3ccccc3n2C)-c2ccccc2CO[C@H]1CN(C)C(=O)Oc1ccccc1 | inactive: 1
COC(=O)C[C@H]1CC[C@H]2NC[C@H](O)COC[C@@H]2O1 | inactive: 0.992
Nc1ccncc1 | inactive: 1.13
c1ccc2sc(C3(N4CCCC4)CCCCC3)cc2c1 | inactive: 0.973
Cc1noc(C)c1CN1CCNCC1 | inactive: 1.01
C[C@@H]1CN([C@H](C)CO)C(=O)CCCn2cc(nn2)CO[C@H]1CN(C)C(=O)Oc1cccc2ccccc12 | inactive: 1
CN1CC(=O)N(c2cccnc2)C[C@]12CCNC2 | inactive: 0.998
Cc1cc([N+](=O)[O-])cnc1N1CCNCC1 | inactive: 0.95
COc1cc2c3cc1Oc1c(OC)c(OC)cc4c1[C@@H](Cc1cccc(c1)Oc1ccc(c(O)c1)C[C@@H]3N(C)CC2)N(C)CC4 | inactive: 0.978
NC1(c2ccc(F)cc2)CCC1 | inactive: 1.02
CC12CC(=O)C3C(CCC4=CC(=O)CCC43C)C1CCC2=O (stereo not drawn) | inactive: 1.05
CN(CCC[C@@H](O)c1cccnc1)[NH2+][O-] | inactive: 1.02
COc1ccc(C(=O)N2CCCC2=O)cc1 | inactive: 1.12
CN1C[C@H](C(=O)N[C@]2(C)O[C@@]3(O)[C@@H]4CCCN4C(=O)[C@H](Cc4ccccc4)N3C2=O)C=C2c3cccc4[nH]cc(c34)C[C@H]21 | inactive: 1.02
O=C(O)CN1C[C@@H]2C(NC(=O)c3ccno3)[C@H]2C1 (stereo partly drawn) | inactive: 1.05
Cc1cccc(Cc2cnc[nH]2)c1C | inactive: 0.959
O=[As]O[As]=O (stereo not drawn) | inactive: 1.08
